Screen size: about 310,000 compounds; about 18,000 (5.8%) were called active. This list was built around the results that the source calls inconclusive (neither active nor inactive); the mix of calls is not that of the screen. Calls come from the whole dose curve; as a rule, active = well fitted inhibition curve with a large enough effect; inconclusive = small, poorly fitted or top-dose-only effect, or another doubt; inactive = no such curve, though single readings can be large or run the other way. No potency is given beside an inconclusive call; the fits are too rough.
Assay: Primary qHTS for delayed death inhibitors of the malarial parasite plastid, 48 hour incubation
Settings: P. falciparum luciferase growth in erythrocytes; series mostly up to 28.7 µM; activity change, negative = inhibition: at the top concentration
Method in brief: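 Here the parasites carry a stable luciferase gene and grow inside erythrocytes in Albumax-based RPMI medium with compound for one erythrocytic cycle. Activity is scored as loss of luminescent signal.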
% is set by controls: 0 for no effect and ±100 for the full control effect; potency is the fitted concentration of half-maximal effect; tags give direction and shape of the fitted curve.

Question: Which Potency does the source give for `COc1ccc(CCNC(=O)c2cc(-c3ccncc3)nc3c(Cl)cccc23)cc1OC` here?
Answer: The Potency was inconclusive [inhibitor, single point].

Question: With `CC1CCN(C(=O)C2CCCN(S(=O)(=O)c3ccc4c(c3)CC(C)N4C(=O)C3CC3)C2)CC1` (centres undefined) as the compound, how does the Potency read?
Answer: The Potency was inconclusive [inhibitor, full curve].

Question: Which Potency does the source give for `CCN(c1ccccc1)S(=O)(=O)c1ccc(C(=O)Nc2nnc(COC)o2)cc1` here?
Answer: The Potency was inconclusive [inhibitor, single point].

Question: For `Nc1c(C(=O)NCCc2ccccc2)nnn1Cc1ccc(Cl)cc1`, which Potency is on record?
Answer: The Potency was inconclusive [inhibitor, single point].

Question: For `Cc1cccc(Oc2nc(-c3cccc([N+](=O)[O-])c3)nc3ccccc23)c1C`, which Potency is on record?
Answer: Its Potency is inconclusive [inhibitor, single point].

Question: For `OCCC1CN(Cc2cnn(-c3ccccc3Cl)c2)CCN1Cc1ccsc1` (centres undefined), which “activity change, negative = inhibition” value is on record?
Answer: The value was inactive: -1.23%.

Question: Which “activity change, negative = inhibition” value does the source give for `CCOC(=O)Cn1nc(/C=C/c2ccc(C(C)C)cc2)ccc1=O` here?
Answer: Its value is inactive: 99.3%.

Question: With `Cc1ccc(S(=O)(=O)NC(CC(=O)NC2CCCC2)c2ccco2)cc1` (centres undefined) as the compound, how does the Potency read?
Answer: Its Potency is inconclusive [inhibitor, partial curve].

Question: For `O=C(Oc1cccc(NC(=O)c2ccco2)c1)c1cccc(S(=O)(=O)N2CCCC2)c1`, which “activity change, negative = inhibition” value is on record?
Answer: The value was inactive: 31.8%.

Question: For `COc1ccc(Cc2nc3c4c(ncn3n2)Oc2c(ccc3ccccc23)C4c2ccc(OC)c(OC)c2)cc1` (centres undefined), which Potency is on record?
Answer: Its Potency is active: 2.62 µM.

Question: With `CCOC(=O)c1cc(CC)sc1NC(=O)COC(=O)c1ccccn1` as the compound, how does the Potency read?
Answer: Its Potency is inconclusive [inhibitor, single point].

Question: With `N#Cc1c(N)c2ccccn2c1C(=O)c1ccc(Br)cc1` as the compound, how does the Potency read?
Answer: Its Potency is inconclusive [inhibitor, partial curve, poor fit].

Question: Which Potency does the source give for `S=c1[nH]c2cc(Cl)c3cccnc3c2o1` here?
Answer: Its Potency is inconclusive [inhibitor, full curve, poor fit].

Question: For `Cc1ccc(NC(=O)Nc2ccc(F)cc2F)c(OC(F)F)c1`, which “activity change, negative = inhibition” value is on record?
Answer: Its value is inactive: 15.7%.

Question: Which Potency does the source give for `COc1ccc(/C=N/NC(=O)c2ccc(NC(=O)c3cccc([N+](=O)[O-])c3)cc2)c(OC)c1` here?
Answer: Its Potency is inconclusive [inhibitor, partial curve, poor fit].

Question: For `CCNc1nc(NCc2ccccc2)nc(SCC(=O)Nc2ccccc2)n1`, which Potency is on record?
Answer: Its Potency is inconclusive [inhibitor, single point].

Question: For `COC(=O)C1=C(c2cccc(OCc3ccccc3)c2)C[C@@H]2CC[C@H]1N2C(=O)NCc1ccc(Cl)cc1`, which Potency is on record?
Answer: Its Potency is active: 8.28 µM.

Question: Which “activity change, negative = inhibition” value does the source give for `O=C(NCCCN1CCOCC1)c1ccco1` here?
Answer: Its value is inactive: 8.85%.

Question: Which Potency does the source give for `COc1cc(C2c3c(-c4ccccc4)n[nH]c3C(=O)N2c2ccccc2)ccc1O` (centres undefined) here?
Answer: The Potency was inconclusive [inhibitor, single point].

Question: For `CN(C)[C@@H]1CCC[C@@H]1OC(=O)C(c1ccccc1)c1ccccc1`, which “activity change, negative = inhibition” value is on record?
Answer: Its value is inactive: 16.4%.

Question: Which Potency does the source give for `CCCC(NC(=O)c1c(C)noc1C)C12CC3CC(CC(C3)C1)C2` (centres undefined) here?
Answer: Its Potency is inconclusive [inhibitor, single point].

Question: Which activity change, negative = inhibition does the source give for `Cc1ccc(CC(=O)Nc2cccnc2)cc1` here?
Answer: Its activity change, negative = inhibition is inactive: 13.9% [at 5.75 µM].

Question: With `COc1ccc(CCn2c(O)c(C=NCc3ccc4c(c3)OCO4)c(=O)[nH]c2=O)cc1OC` as the compound, how does the Potency read?
Answer: Its Potency is inconclusive [inhibitor, partial curve, poor fit].

Question: For `CCOc1ccc(CCNC(=O)COC(=O)c2sccc2C)cc1OCC`, which “activity change, negative = inhibition” value is on record?
Answer: The value was inactive: -11.3%.

Question: For `O=C(NCCc1ccccc1)/C(=C\c1ccc([N+](=O)[O-])cc1)NC(=O)c1ccc(Br)cc1`, which Potency is on record?
Answer: Its Potency is inconclusive [inhibitor, full curve, poor fit].

Question: With `Cc1cc(-c2csc(N)n2)c(C)n1Cc1ccco1` as the compound, how does the “activity change, negative = inhibition” value read?
Answer: Its value is inactive: -2.95%.

Question: Which Potency does the source give for `COc1ccc(NC(=O)c2c(-c3c(Cl)cccc3Cl)noc2C)c(OC)c1` here?
Answer: The Potency was active: 1.65 µM.

Question: For `CC(C)C(NC(=O)c1ccc(F)cc1)C(=O)NCC1CCCO1` (centres undefined), which “activity change, negative = inhibition” value is on record?
Answer: The value was inactive: 46.2%.

Question: Which “activity change, negative = inhibition” value does the source give for `CCCCOc1ccc2c(c1)C(=O)c1cc(O)ccc1-2` here?
Answer: The value was inactive: 76.2%.

Question: With `N#CC1(c2ccc(NC(=O)c3ccccc3F)cc2)CCCC1` as the compound, how does the “activity change, negative = inhibition” value read?
Answer: Its value is inactive: 191%.

Question: For `CCC(C)Sc1ccc([C@H]2N[C@@](C)(C(=O)OC)[C@H]3C(=O)N(C)C(=O)[C@@H]23)cc1OC` (some centres undefined), which Potency is on record?
Answer: Its Potency is inconclusive [inhibitor, single point].

Question: Which Potency does the source give for `CCc1ccc(N2C(=O)C3C4CCC(C4=C(C)C)C3C2=O)cc1` (centres undefined) here?
Answer: The Potency was inconclusive [inhibitor, single point].

Question: Which Potency does the source give for `CCOc1ccc(S(=O)(=O)N(C)c2ccc(OCC(=O)N3c4ccc(C)cc4C4CN(C)CCC43)cc2)cc1` (centres undefined) here?
Answer: The Potency was inconclusive [inhibitor, partial curve].

Question: With `COc1ccccc1NC(=O)Nc1ccc(NC(=O)c2ccccc2O)cc1` as the compound, how does the “activity change, negative = inhibition” value read?
Answer: Its value is inactive: -4.41%.

Question: Which Potency does the source give for `CCOC(=O)C1(Cc2cccc(Cl)c2)CCCN(C(=O)c2cc(C)[nH]n2)C1` (centres undefined) here?
Answer: Its Potency is inconclusive [inhibitor, partial curve, poor fit].

Question: Which Potency does the source give for `Cc1ccc2c(c1)C1CN(C)CCC1N2C(=O)Nc1cccc(Cl)c1` (centres undefined) here?
Answer: Its Potency is inconclusive [inhibitor, partial curve, poor fit].

Question: With `CC1(C)CC(NC(=O)c2c(N)no[n+]2[O-])CC(C)(C)N1` as the compound, how does the Potency read?
Answer: The Potency was inconclusive [inhibitor, single point].

Question: For `Cc1occc1C(=O)Nc1cccc(C(=O)NCc2ccccc2)c1`, which Potency is on record?
Answer: Its Potency is inconclusive [inhibitor, single point].

Question: With `O=C(N/N=C/c1ccc(OCC(=O)N2CCCCC2)cc1)c1ccccc1O` as the compound, how does the “activity change, negative = inhibition” value read?
Answer: Its value is inactive: 1.32%.

Question: With `CCOCCCNCc1cc(Cl)cc(Cl)c1OCC` as the compound, how does the Potency read?
Answer: Its Potency is inconclusive [inhibitor, partial curve].

Question: With `Cn1c(SCC(=O)Nc2ccc3nc(SCC(=O)NC4CC4)sc3c2)nnc1-c1ccccc1` as the compound, how does the Potency read?
Answer: The Potency was inconclusive [inhibitor, partial curve, poor fit].

Question: Which “activity change, negative = inhibition” value does the source give for `O=C(CCS(=O)NCc1ccccc1)NCc1ccccc1` (centres undefined) here?
Answer: The value was inactive: 18.7%.

Question: Which Potency does the source give for `Cc1ccc(CN2CCSc3ccc(C(=O)NCc4ccco4)cc32)cc1` here?
Answer: Its Potency is inconclusive [inhibitor, partial curve, poor fit].

Question: Which Potency does the source give for `O=C(O)c1ccc2c(c1)C(=O)N([C@H](Cc1ccc(C(F)(F)F)cc1)C(=O)O)C2=O` here?
Answer: The Potency was inconclusive [inhibitor, single point].

Question: Which Potency does the source give for `CCOC(=O)/C=C/C(=O)Nc1cc(S(=O)(=O)Nc2ccc(OC)cc2)ccc1N1CCOCC1` here?
Answer: Its Potency is inconclusive [inhibitor, partial curve, poor fit].

Question: Which Potency does the source give for `Cc1cc(Cl)c(S(=O)(=O)Nc2ccc3c(c2)OCCO3)cc1OCC(N)=O` here?
Answer: The Potency was inconclusive [inhibitor, single point].

Question: Which “activity change, negative = inhibition” value does the source give for `CCCCNC(=O)C1CC(c2cccc([N+](=O)[O-])c2)=NO1` (centres undefined) here?
Answer: Its value is inactive: 53.7%.

Question: With `COc1ccccc1/C=C/C=N/NC(=O)c1ccco1` as the compound, how does the Potency read?
Answer: The Potency was active: 11.7 µM.

Question: Which Potency does the source give for `CC(C#N)Sc1nc2ccccc2c(=O)n1-c1ccccc1` (centres undefined) here?
Answer: Its Potency is inconclusive [inhibitor, single point].

Question: For `Cc1occc1-c1nnc(SCC(=O)c2ccccc2)n1CC1CCCO1` (centres undefined), which Potency is on record?
Answer: The Potency was inconclusive [inhibitor, partial curve, poor fit].

Question: Which Potency does the source give for `COc1ccc2nc(NC(=O)C3CCCN3S(=O)(=O)c3ccc(C)cc3)sc2c1` (centres undefined) here?
Answer: Its Potency is inconclusive [inhibitor, single point].

Question: For `CNC(=O)c1nnsc1S(=O)(=O)c1ccc(Cl)cc1`, which Potency is on record?
Answer: Its Potency is inconclusive [inhibitor, single point].

Question: Which “activity change, negative = inhibition” value does the source give for `CN(C)S(=O)(=O)c1cccc(NC(=O)c2cc3ccccc3o2)c1` here?
Answer: Its value is inactive: 64.3%.

Question: With `COc1ccc(C2C3=C(CC(C)(C)CC3=O)Nc3n[nH]c(C)c32)cc1` (centres undefined) as the compound, how does the Potency read?
Answer: Its Potency is inconclusive [inhibitor, single point].

Question: For `CC(C)c1ccc(NC(=O)NC2CC3CCC(C2)N3Cc2cccs2)cc1` (centres undefined), which Potency is on record?
Answer: The Potency was inconclusive [inhibitor, single point].

Question: Which Potency does the source give for `CCC(C(=O)c1ccc2ncccc2c1)c1ccccc1` (centres undefined) here?
Answer: The Potency was inconclusive [inhibitor, partial curve, poor fit].

Question: For `O=C(Nc1ccc(OC(F)(F)F)cc1)c1ccc2nc[nH]c2c1`, which “activity change, negative = inhibition” value is on record?
Answer: Its value is inactive: 25.9%.

Question: Which “activity change, negative = inhibition” value does the source give for `O=C(CC1SC(=Nc2ccccc2)N(Cc2ccccn2)C1=O)Nc1ccc(Br)cc1` (centres undefined) here?
Answer: Its value is inactive: -70.8%.

Question: For `CC1=C(C(=O)OCC2CCCO2)C(c2ccc(C)o2)C2=C(CC(c3ccc(F)cc3)CC2=O)N1` (centres undefined), which Potency is on record?
Answer: The Potency was inconclusive [inhibitor, partial curve].

Question: Which “activity change, negative = inhibition” value does the source give for `CC(C)Cc1cc(C(=O)Nc2cc(Cl)ccc2Cl)no1` here?
Answer: Its value is inactive: 0.579%.

Question: Which Potency does the source give for `CCCN(CCC)CCCOC(=O)c1ccc(Cl)cc1Cl` here?
Answer: The Potency was inconclusive [inhibitor, single point].

Question: Which Potency does the source give for `CN(C)C1CCN(Cc2cc(COCc3ccccc3)c3cccnc3c2O)C1` (centres undefined) here?
Answer: The Potency was active: 0.828 µM.

Question: Which Potency does the source give for `COC(=O)C1=C(SC)N(c2ccccc2)C(c2ccccc2)CC1=O` (centres undefined) here?
Answer: The Potency was inconclusive [inhibitor, partial curve].

Question: Which “activity change, negative = inhibition” value does the source give for `CC1C(=O)Nc2ccccc2N1C(=O)c1ccc(F)cc1` (centres undefined) here?
Answer: The value was inactive: 2.59%.

Question: With `O=C(COC(=O)c1ccc(F)c(S(=O)(=O)N2CCOCC2)c1)c1ccc(Br)cc1` as the compound, how does the Potency read?
Answer: Its Potency is inconclusive [inhibitor, single point].

Question: With `CCCCN(C(=O)c1cc2ccccc2o1)c1c(N)n(CCCC)c(=O)[nH]c1=O` as the compound, how does the Potency read?
Answer: Its Potency is inconclusive [inhibitor, single point].

Question: For `O=S(=O)(c1ccccc1)N1CCN(S(=O)(=O)c2ccc(F)cc2)CC1`, which “activity change, negative = inhibition” value is on record?
Answer: Its value is inactive: 34.8%.

Question: For `CN1CCN(c2ccc(NC(=O)c3ccc(Oc4ccccc4)cc3)cc2)CC1`, which Potency is on record?
Answer: The Potency was inconclusive [inhibitor, single point].

Question: Which Potency does the source give for `O=C(NC(=S)Nc1ccc(S(=O)(=O)N2CCOCC2)cc1)c1ccccc1[N+](=O)[O-]` here?
Answer: The Potency was inconclusive [inhibitor, partial curve, poor fit].
